# Measured values taken from the supplement of paper PMC8728848.
# Some of the results follow.
# Assays:
# Assay in all cases: glycan array binding signal (z-score within array); higher = stronger binding
# Details in all cases: glycan notation: IUPAC condensed, linker removed
# [1] = target: Gal(b1-3)[Neu5Ac(a2-6)]GalNAc
# Method in brief: (§1)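 Glycan array binding is given as a within-array Z-score, which can be read as non-binding when negative. The arrays, 3228 of them, came from the Consortium for Functional Glycomics database and were retained only where the protein sequence was available. Z-scores were averaged across arrays of the same protein sequence at different concentrations or buffers and across linkers.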
# [2] = target: Gal(b1-3)[Neu5Ac(a2-6)]GlcNAc
# Method in brief: as §1
# [3] = target: Gal(b1-3)[Neu5Ac(a2-6)]GlcNAc(a1-4)Gal(b1-4)Glc
# Method in brief: as §1
# [4] = target: Gal(b1-3)[Neu5Ac(b2-6)]GlcNAc
# Method in brief: as §1
# [5] = target: Gal(b1-4)GalNAc(a1-3)[Fuc(a1-2)]Gal(b1-4)GlcNAc
# Method in brief: as §1
# [6] = target: Gal(b1-4)GalNAc(b1-3)[Fuc(a1-2)]Gal(b1-4)GlcNAc
# Method in brief: as §1
# [7] = target: Gal(b1-4)Glc
# Method in brief: as §1
# [8] = target: Gal(b1-4)Glc6S
# Method in brief: as §1
# [9] = target: Gal(b1-4)GlcNAc
# Method in brief: as §1
# [10] = target: Gal(b1-4)GlcNAc(b1-2)Man(a1-3)[Gal(b1-4)GlcNAc(b1-2)Man(a1-6)]Man(b1-4)GlcNAc(b1-4)GlcNAc
# Method in brief: as §1
# [11] = target: Gal(b1-4)GlcNAc(b1-3)Gal(b1-4)Glc
# Method in brief: as §1
# [12] = target: Gal(b1-4)GlcNAc(b1-3)Gal(b1-4)GlcNAc
# Method in brief: as §1
# [13] = target: Gal(b1-4)GlcNAc(b1-3)Gal(b1-4)GlcNAc(b1-3)Gal(b1-4)GlcNAc
# Method in brief: as §1
# [14] = target: Gal(b1-4)GlcNAc(b1-3)Gal(b1-4)[Fuc(a1-3)]GlcNAc(b1-3)Gal(b1-4)[Fuc(a1-3)]GlcNAc
# Method in brief: as §1
# [15] = target: Gal(b1-4)GlcNAc(b1-3)GalNAc
# Method in brief: as §1
# [16] = target: Gal(b1-4)GlcNAc(b1-3)[Gal(b1-4)GlcNAc(b1-6)]GalNAc
# Method in brief: as §1
# [17] = target: Gal(b1-4)GlcNAc(b1-6)GalNAc
# Method in brief: as §1
# [18] = target: Gal(b1-4)GlcNAc(b1-6)[Gal(b1-3)]GalNAc
# Method in brief: as §1
# [19] = target: Gal(b1-4)GlcNAc(b1-6)[Gal(b1-3)]GlcNAc
# Method in brief: as §1
# [20] = target: Gal3S(b1-3)GalNAc
# Method in brief: as §1
# [21] = target: Gal3S(b1-3)GlcNAc
# Method in brief: as §1
# [22] = target: Gal3S(b1-3)[Fuc(a1-4)]GlcNAc
# Method in brief: as §1
# [23] = target: Gal3S(b1-4)Glc
# Method in brief: as §1
# [24] = target: Gal3S(b1-4)Glc6S
# Method in brief: as §1
# [25] = target: Gal3S(b1-4)GlcNAc
# Method in brief: as §1
# [26] = target: Gal3S(b1-4)GlcNAc6S
# Method in brief: as §1
# [27] = target: Gal3S6S(b1-4)GlcNAc
# Method in brief: as §1
# [28] = target: Gal3S6S(b1-4)GlcNAc6S
# Method in brief: as §1
# [29] = target: Gal4S(b1-4)GlcNAc
# Method in brief: as §1
# [30] = target: Gal4S6S(b1-4)GlcNAc
# Method in brief: as §1
# [31] = target: Gal6S(b1-4)Glc
# Method in brief: as §1
# [32] = target: Gal6S(b1-4)Glc6S
# Method in brief: as §1
# [33] = target: Gal6S(b1-4)GlcNAc
# Method in brief: as §1
# [34] = target: GalNAc(a1-3)Gal
# Method in brief: as §1
# [35] = target: GalNAc(a1-3)GalNAc
# Method in brief: as §1
# [36] = target: GalNAc(b1-3)Gal(a1-4)Gal(b1-4)GlcNAc
# Method in brief: as §1
# [37] = target: GalNAc(b1-4)GlcNAc
# Method in brief: as §1
# [38] = target: Glc(a1-4)Glc
# Method in brief: as §1
# [39] = target: Glc(a1-6)Glc(a1-6)Glc
# Method in brief: as §1
# [40] = target: Glc(b1-4)Glc
# Method in brief: as §1
# [41] = target: Glc(b1-6)Glc
# Method in brief: as §1
# [42] = target: GlcA(b1-3)Gal
# Method in brief: as §1
# [43] = target: GlcA(b1-6)Gal
# Method in brief: as §1
# [44] = target: GlcNAc(a1-3)Gal(b1-4)GlcNAc
# Method in brief: as §1
# [45] = target: GlcNAc(a1-6)Gal(b1-4)GlcNAc
# Method in brief: as §1
# [46] = target: GlcNAc(b1-2)Gal(b1-3)GlcNAc
# Method in brief: as §1
# [47] = target: GlcNAc(b1-2)Man(a1-3)[GlcNAc(b1-2)Man(a1-6)]Man(b1-4)GlcNAc(b1-4)GlcNAc
# Method in brief: as §1
# [48] = target: GlcNAc(b1-3)Gal
# Method in brief: as §1
# [49] = target: GlcNAc(b1-3)Gal(b1-3)GalNAc
# Method in brief: as §1
# [50] = target: GlcNAc(b1-3)Gal(b1-4)Glc
# Method in brief: as §1
# [51] = target: GlcNAc(b1-3)Gal(b1-4)GlcNAc
# Method in brief: as §1
# [52] = target: GlcNAc(b1-3)Gal(b1-4)GlcNAc(b1-3)Gal(b1-4)GlcNAc
# Method in brief: as §1
# [53] = target: GlcNAc(b1-3)GalNAc
# Method in brief: as §1
# [54] = target: GlcNAc(b1-3)[GlcNAc(b1-4)][GlcNAc(b1-6)]GlcNAc
# Method in brief: as §1
# [55] = target: GlcNAc(b1-3)[GlcNAc(b1-6)]Gal(b1-4)GlcNAc
# Method in brief: as §1
# [56] = target: GlcNAc(b1-3)[GlcNAc(b1-6)]GlcNAc
# Method in brief: as §1
# [57] = target: GlcNAc(b1-4)Gal(b1-4)GlcNAc
# Method in brief: as §1
# [58] = target: GlcNAc(b1-4)GlcNAc(b1-4)GlcNAc
# Method in brief: as §1
# [59] = target: GlcNAc(b1-4)GlcNAc(b1-4)GlcNAc(b1-4)GlcNAc(b1-4)GlcNAc
# Method in brief: as §1
# [60] = target: GlcNAc(b1-4)GlcNAc(b1-4)GlcNAc(b1-4)GlcNAc(b1-4)GlcNAc(b1-4)GlcNAc
# Method in brief: as §1
binder,measurement,setting,value
7WC (Trifolium repens) (protein) MGTITSYAVVFDAGSTGSRVHVYHFDQNLDLLHIGKDVEFYNKIQPGLSAYADNPEQAAKSLIPLLEQAENVVPEDFHSKTPIRLGATAGLRLLDGDASERILQAVRDMLNNKSTFNVQPDAVSIIDGTQEGSYLWVTINYVLGNLGKRFTNTVGVIDLGGGSVQMAYAVSKKTARNAPKVTDGEDPYIKKIVLKGKPYDLYVHSYLHFGREASRAEILKVTHGSASPCILAGFDGIYTYSGEEFKASAPTSGANFDKCKKIIQKALKLDYPCPYQNCTFGGIWNGGGGSGQKKLFAASSFFYLPQDVGMVDPNKSNLKLRPVDLENKAKIVCTLNVEDVKSAYPLLEKFNIVPYACMDLIYQYELLVDGFGLDPLQEITAGEKIEYQEALVDAAWALGNAVEAVLLLPKFERLMYFVVEHHHHHH,glycan array binding signal (z-score),[1],-0.464
same,glycan array binding signal (z-score),[2],-0.01
same,glycan array binding signal (z-score),[3],-0.059
same,glycan array binding signal (z-score),[4],-0.157
same,glycan array binding signal (z-score),[5],-0.078
same,glycan array binding signal (z-score),[6],-0.202
same,glycan array binding signal (z-score),[7],0.385
same,glycan array binding signal (z-score),[8],0.697
same,glycan array binding signal (z-score),[9],-0.357
same,glycan array binding signal (z-score),[10],-0.511
same,glycan array binding signal (z-score),[11],-0.215
same,glycan array binding signal (z-score),[12],-0.467
same,glycan array binding signal (z-score),[13],-0.52
same,glycan array binding signal (z-score),[14],-0.361
same,glycan array binding signal (z-score),[15],-0.394
same,glycan array binding signal (z-score),[16],-0.194
same,glycan array binding signal (z-score),[17],-0.08
same,glycan array binding signal (z-score),[18],-0.035
same,glycan array binding signal (z-score),[19],0.144
same,glycan array binding signal (z-score),[20],0.371
same,glycan array binding signal (z-score),[21],0.078
same,glycan array binding signal (z-score),[22],-0.208
same,glycan array binding signal (z-score),[23],-0.3
same,glycan array binding signal (z-score),[24],-0.093
same,glycan array binding signal (z-score),[25],-0.308
same,glycan array binding signal (z-score),[26],-0.334
same,glycan array binding signal (z-score),[27],-0.404
same,glycan array binding signal (z-score),[28],-0.418
same,glycan array binding signal (z-score),[29],-0.335
same,glycan array binding signal (z-score),[30],0.174
same,glycan array binding signal (z-score),[31],0.086
same,glycan array binding signal (z-score),[32],0.274
same,glycan array binding signal (z-score),[33],0.128
same,glycan array binding signal (z-score),[34],0.176
same,glycan array binding signal (z-score),[35],0.205
same,glycan array binding signal (z-score),[36],-0.367
same,glycan array binding signal (z-score),[37],-0.1
same,glycan array binding signal (z-score),[38],2.65
same,glycan array binding signal (z-score),[39],1.41
same,glycan array binding signal (z-score),[40],2.14
same,glycan array binding signal (z-score),[41],2.4
same,glycan array binding signal (z-score),[42],2.23
same,glycan array binding signal (z-score),[43],-0.371
same,glycan array binding signal (z-score),[44],0.021
same,glycan array binding signal (z-score),[45],0.363
same,glycan array binding signal (z-score),[46],0.011
same,glycan array binding signal (z-score),[47],0.88
same,glycan array binding signal (z-score),[48],0.343
same,glycan array binding signal (z-score),[49],0.3
same,glycan array binding signal (z-score),[50],0.503
same,glycan array binding signal (z-score),[51],-0.367
same,glycan array binding signal (z-score),[52],-0.327
same,glycan array binding signal (z-score),[53],-0.337
same,glycan array binding signal (z-score),[54],2.53
same,glycan array binding signal (z-score),[55],0.568
same,glycan array binding signal (z-score),[56],0.685
same,glycan array binding signal (z-score),[57],-0.21
same,glycan array binding signal (z-score),[58],0.1
same,glycan array binding signal (z-score),[59],-0.291
same,glycan array binding signal (z-score),[60],-0.165
